Results: patent publication US20240400640A1 (published 2024)

Key:
[1] = target: hPD-L1 (human programmed cell death ligand-1) (human, UniProt Q9NZQ7 fragment); experiment: SPR
[2] = target: T1, hPD-L2 (human programmed cell death ligand-2) (human, UniProt Q9BQ51 20-220); experiment: SPR
T1 chain: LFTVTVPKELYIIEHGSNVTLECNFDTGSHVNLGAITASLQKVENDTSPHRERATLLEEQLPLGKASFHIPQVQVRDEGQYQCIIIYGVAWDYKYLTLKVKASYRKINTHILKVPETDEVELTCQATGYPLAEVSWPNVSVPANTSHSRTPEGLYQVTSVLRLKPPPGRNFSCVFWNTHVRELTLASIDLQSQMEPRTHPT

Chain of UniProt Q9NZQ7 (Q9NZQ7 19-238): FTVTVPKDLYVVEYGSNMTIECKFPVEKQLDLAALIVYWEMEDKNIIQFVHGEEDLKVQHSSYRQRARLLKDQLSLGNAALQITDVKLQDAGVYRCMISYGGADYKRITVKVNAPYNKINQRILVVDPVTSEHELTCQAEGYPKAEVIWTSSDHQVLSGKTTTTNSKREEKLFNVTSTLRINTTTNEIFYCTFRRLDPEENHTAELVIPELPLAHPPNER

B1: PD-1 D-Fc (protein)
chain: LDSPDRPWNPPTFSPALLVVTEGDNATFTCSFSNTSESFVLNWYRMSPSNQTDKLAAFPEDRSQPGQDCRFRVTQLPNGRDFHMSVVRARRNDSGTYLCGAISLAPKAQIKESLRAELRVTERRAEGGGGSGGGGS[human IgG1 Fc skipped]
Kd [1]: 128 nM | Kd [2]: 7.38 nM
